{
  "source": "PubChem BioAssay AID463173",
  "about": "(ICCB-Longwood Screening Facility, Harvard Medical School, 2010)",
  "note": "Screen size: about 52,000 compounds; about 4,300 (8.3%) were called active. Rule as the data show it: active = survival mostly below about 52% (no sharp cut-off); inactive = mostly above about 56%. Some of the results follow.",
  "data": [
    {"test_system": "DeltatarO mutant", "test": "S. aureus survival, RN4220 and DeltatarO strains – OD600, teichoic acid synthesis inhibitors, primary screen (AID 463173)", "details": "S. aureus RN4220 wild type/DeltatarO growth, OD600, 18 h, hits give low values, screened at 18.75 µg/mL (by protocol)", "values": [
      {"smiles": "Cc1ccc(F)cc1NC(=O)CCc1c(C)nn(-c2ccc(N3CCCCC3)nn2)c1C", "survival": "inactive: 69%"},
      {"smiles": "Cc1ccc(S(=O)(=O)c2nnn(CC(=O)Nc3ccccc3C)c2N)cc1C", "survival": "inactive: 91%"},
      {"smiles": "CCC(=O)Nc1ccc2nc(SCCOc3cccc(C)c3)sc2c1", "survival": "inactive: 104%"},
      {"smiles": "CC(C)(C)NC(=O)Cn1cc(S(=O)(=O)Cc2ccc(F)cc2)c2ccccc21", "survival": "inactive: 67%"},
      {"smiles": "COCCn1c(SCC(=O)c2ccc(OC)cc2)nc2cc(C(=O)NC3CCCC3)ccc2c1=O", "survival": "inactive: 94%"},
      {"smiles": "CCCOc1ccc(-c2nonc2NC(=O)COc2ccc(C)cc2)cc1OCCC", "survival": "inactive: 112%"},
      {"smiles": "CCOC(=O)CNC(c1ccccc1)c1cc(Br)ccc1NC(=O)c1ccc(Cl)cc1", "note": "(stereo not given)", "survival": "inactive: 71%"},
      {"smiles": "CC(=O)c1c(C)oc2c(Cl)cc(NS(=O)(=O)c3cc(C)c(C)cc3C)cc12", "survival": "inactive: 157%"},
      {"smiles": "COC(=O)c1cc2oc(C)cc2n1Cc1cccc(Cl)c1", "survival": "active: -8%"},
      {"smiles": "Cc1ccc(-n2c(=O)c3c(c4cc(C)ccc4n3C)n(CC(=O)NCCC3=CCCCC3)c2=O)cc1", "survival": "inactive: 55%"},
      {"smiles": "O=c1c2oc3ccccc3c2n(Cc2cccc(Cl)c2)c(=O)n1Cc1ccc2c(c1)OCO2", "survival": "inactive: 88%"},
      {"smiles": "COc1ccccc1OCC(=O)NCC1(N2CCOCC2)CCCCC1", "survival": "inactive: 90%"},
      {"smiles": "FC(F)(F)c1nnc2c3ccccc3nc(-c3ccccc3)n12", "survival": "active: 29%"},
      {"smiles": "O=C(NCc1cccc(Cl)c1)c1ccc(CS(=O)Cc2ccccc2Cl)o1", "note": "(stereo not given)", "survival": "inactive: 63%"},
      {"smiles": "CCCCSCc1ccc(C(=O)O)o1", "survival": "inactive: 77%"},
      {"smiles": "O=C(CCC1N=C2c3ccccc3N=C(SCc3ccccc3Cl)N2C1=O)NCc1cccs1", "note": "(stereo not given)", "survival": "inactive: 79%"},
      {"smiles": "CCOc1ccc(OCC)c(NC(=O)c2cnc3c(-c4ccccc4)c(C)nn3c2C)c1", "survival": "inactive: 91%"},
      {"smiles": "CC(C)Cc1ccc(S(=O)(=O)Nc2ccc3[nH]c(=O)[nH]c3c2)cc1", "survival": "inactive: 87%"},
      {"smiles": "Nc1nc(NC(=S)Nc2ccccc2)cc(=O)[nH]1", "survival": "inactive: 62%"},
      {"smiles": "COc1ccccc1CNC(=O)Cn1c(=O)ccc2cc(S(=O)(=O)N3CCC(C)CC3)ccc21", "survival": "inactive: 83%"},
      {"smiles": "O=S(=O)(c1ccc(Cl)cc1)c1nc(-c2ccccc2Br)oc1N1CCOCC1", "survival": "inactive: 59%"},
      {"smiles": "COC(=O)c1c(C)oc2c1cc(NS(=O)(=O)c1c(C)cc(C)cc1C)c1ccccc12", "survival": "inactive: 71%"},
      {"smiles": "O=c1[nH]c2ccccc2c(O)c1C1=NS(=O)(=O)c2ccccc2N1", "survival": "inactive: 75%"},
      {"smiles": "O=C(NC1(C(F)(F)F)NC(=O)N(CCc2ccccc2)C1=O)c1ccccc1F", "note": "(stereo not given)", "survival": "inactive: 76%"},
      {"smiles": "O=C(O)C1CCCN1C(=O)/C=C/c1ccco1", "note": "(stereo not given)", "survival": "inactive: 98%"},
      {"smiles": "Cc1ccc(NC(=O)CCc2c(C)nn(-c3ccc(N4CCCCC4)nn3)c2C)cc1F", "survival": "inactive: 124%"},
      {"smiles": "COc1cccc(CSc2nc3cc(OC)c(OC)cc3c3nc(CCn4nc(C)cc4C)nn23)c1", "survival": "active: 60%"},
      {"smiles": "CCOc1ccc2nc(N(Cc3cccnc3)C(=O)c3ccc4c(c3)OCCO4)sc2c1", "survival": "inactive: 84%"},
      {"smiles": "COc1cc(NC(=O)C(NC(=O)C2CCC(C)CC2)C(C)C)cc(OC)c1OC", "note": "(stereo not given)", "survival": "inactive: 83%"},
      {"smiles": "COc1ccc(Cl)cc1NS(=O)(=O)c1c(C)nc2scc(C)n2c1=O", "survival": "inactive: 84%"},
      {"smiles": "COCCn1c(CNC(=O)c2cc([N+](=O)[O-])ccc2Cl)nc2cccnc21", "survival": "inactive: 84%"},
      {"smiles": "COc1ccc2nc(SCc3nnc(-c4ccccc4)o3)c(C#N)cc2c1", "survival": "inactive: 71%"},
      {"smiles": "Cn1c(=O)c2c(nc(NCCc3ccccc3)n2Cc2cccc(Br)c2)n(C)c1=O", "survival": "inactive: 50%"},
      {"smiles": "COc1ccc2c(c1)CCc1c(C(=O)Nc3c(C)nn(Cc4ccccc4Cl)c3C)noc1-2", "survival": "inactive: 109%"},
      {"smiles": "O=c1n(Cc2ccc(F)cc2Cl)c2ccccc2c2nc(-c3ccccc3)nn12", "survival": "inactive: 125%"},
      {"smiles": "Cc1ccc(CCNC(=O)c2nnc(Cc3cccc(F)c3)o2)cc1", "survival": "inactive: 86%"},
      {"smiles": "CC1Cc2ccccc2N1S(=O)(=O)c1nnc(NC(=O)c2ccccc2Br)s1", "note": "(stereo not given)", "survival": "active: 23%"},
      {"smiles": "COc1ccc(-c2cn3nc(N4CCCC(C(=O)Nc5ccc(Cl)cc5C)C4)sc3n2)cc1", "note": "(stereo not given)", "survival": "inactive: 85%"},
      {"smiles": "COc1ccc(S(=O)(=O)NCC(c2cccs2)S(=O)(=O)c2ccc(C)cc2)cc1F", "note": "(stereo not given)", "survival": "inactive: 98%"},
      {"smiles": "Cc1[nH]c2ccc(F)cc2c1CCNC(=O)c1cc2cc(Cl)ccc2oc1=O", "survival": "inactive: 52%"},
      {"smiles": "CC(C)Oc1ccc(C(=O)Nc2ccc3oc(-c4ccncc4)nc3c2)cc1", "survival": "inactive: 129%"},
      {"smiles": "CC(C)(C)c1nc(NCC2CCCO2)c2nnn(Cc3ccccc3Cl)c2n1", "note": "(stereo not given)", "survival": "inactive: 102%"},
      {"smiles": "Cc1nnc(NC(=O)C(C)N2CCCC2)s1", "note": "(stereo not given)", "survival": "inactive: 97%"},
      {"smiles": "Cc1c(CNC2CCCCCC2)c(C(=O)O)c(C)n1Cc1c(F)cccc1Cl", "survival": "inactive: 78%"},
      {"smiles": "COc1ccc(C(=O)Nc2onc3c2CCCC3)cc1", "survival": "inactive: 71%"}
    ]}
  ]
}
